The other results are listed elsewhere or left out.
Legend:
Assay in all cases: glycan array binding signal (z-score within array); higher = stronger binding
Conditions in all cases: glycan notation: IUPAC condensed, linker removed
[1] = molecular target: Neu5Ac(a2-6)Gal(b1-4)GlcNAc(b1-2)Man(a1-3)[GlcNAc(b1-4)][Neu5Ac(a2-6)Gal(b1-4)GlcNAc(b1-2)Man(a1-6)]Man(b1-4)GlcNAc(b1-4)GlcNAc
Outline: (§1)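 The binding signal is a Z-score computed within each array. Data were drawn from 3228 arrays in the Consortium for Functional Glycomics database, restricted to those with a known protein sequence. Scores were averaged over arrays of the same protein sequence at different concentrations or buffers, and over linkers, and negative values can be taken as non-binding.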

[2] = molecular target: Neu5Ac(a2-6)Gal(b1-4)GlcNAc(b1-2)Man(a1-3)[Man(a1-6)]Man(b1-4)GlcNAc(b1-4)GlcNAc
Outline: as §1

[3] = molecular target: Neu5Ac(a2-6)Gal(b1-4)GlcNAc(b1-2)Man(a1-3)[Neu5Ac(a2-3)Gal(b1-4)GlcNAc(b1-2)Man(a1-6)]Man(b1-4)GlcNAc(b1-4)GlcNAc
Outline: as §1

[4] = molecular target: Neu5Ac(a2-6)Gal(b1-4)GlcNAc(b1-2)Man(a1-3)[Neu5Ac(a2-6)Gal(b1-4)GlcNAc(b1-2)Man(a1-6)]Man(b1-4)GlcNAc(b1-4)GlcNAc
Outline: as §1

[5] = molecular target: Neu5Ac(a2-6)Gal(b1-4)GlcNAc(b1-2)Man(a1-3)[Neu5Ac(a2-6)Gal(b1-4)GlcNAc(b1-2)Man(a1-6)]Man(b1-4)GlcNAc(b1-4)[Fuc(a1-6)]GlcNAc
Outline: as §1

[6] = molecular target: Neu5Ac(a2-6)Gal(b1-4)GlcNAc(b1-2)Man(a1-6)Man(b1-4)GlcNAc(b1-4)GlcNAc
Outline: as §1

[7] = molecular target: Neu5Ac(a2-6)Gal(b1-4)GlcNAc(b1-2)Man(a1-6)[Gal(b1-4)GlcNAc(b1-2)Man(a1-3)]Man(b1-4)GlcNAc(b1-4)GlcNAc
Outline: as §1

[8] = molecular target: Neu5Ac(a2-6)Gal(b1-4)GlcNAc(b1-2)Man(a1-6)[GlcNAc(b1-2)Man(a1-3)]Man(b1-4)GlcNAc(b1-4)GlcNAc
Outline: as §1

[9] = molecular target: Neu5Ac(a2-6)Gal(b1-4)GlcNAc(b1-2)Man(a1-6)[Man(a1-3)]Man(b1-4)GlcNAc(b1-4)GlcNAc
Outline: as §1

[10] = molecular target: Neu5Ac(a2-6)Gal(b1-4)GlcNAc(b1-2)[Neu5Ac(a2-6)Gal(b1-4)GlcNAc(b1-4)]Man(a1-3)[GlcNAc(b1-4)][Neu5Ac(a2-6)Gal(b1-4)GlcNAc(b1-2)[Neu5Ac(a2-6)Gal(b1-4)GlcNAc(b1-6)]Man(a1-6)]Man(b1-4)GlcNAc(b1-4)GlcNAc
Outline: as §1

[11] = molecular target: Neu5Ac(a2-6)Gal(b1-4)GlcNAc(b1-2)[Neu5Ac(a2-6)Gal(b1-4)GlcNAc(b1-4)]Man(a1-3)[GlcNAc(b1-4)][Neu5Ac(a2-6)Gal(b1-4)GlcNAc(b1-4)Man(a1-6)]Man(b1-4)GlcNAc(b1-4)GlcNAc
Outline: as §1

[12] = molecular target: Neu5Ac(a2-6)Gal(b1-4)GlcNAc(b1-2)[Neu5Ac(a2-6)Gal(b1-4)GlcNAc(b1-6)]Man(a1-6)[Neu5Ac(a2-6)Gal(b1-4)GlcNAc(b1-2)Man(a1-3)][GlcNAc(b1-4)]Man(b1-4)GlcNAc(b1-4)GlcNAc
Outline: as §1

[13] = molecular target: Neu5Ac(a2-6)Gal(b1-4)GlcNAc(b1-3)Gal(b1-3)GlcNAc
Outline: as §1

[14] = molecular target: Neu5Ac(a2-6)Gal(b1-4)GlcNAc(b1-3)Gal(b1-4)GlcNAc
Outline: as §1

[15] = molecular target: Neu5Ac(a2-6)Gal(b1-4)GlcNAc(b1-3)Gal(b1-4)GlcNAc(b1-2)Man(a1-3)[Neu5Ac(a2-6)Gal(b1-4)GlcNAc(b1-3)Gal(b1-4)GlcNAc(b1-2)Man(a1-6)]GalNAc
Outline: as §1

[16] = molecular target: Neu5Ac(a2-6)Gal(b1-4)GlcNAc(b1-3)Gal(b1-4)GlcNAc(b1-3)Gal(b1-4)GlcNAc
Outline: as §1

[17] = molecular target: Neu5Ac(a2-6)Gal(b1-4)GlcNAc(b1-3)Gal(b1-4)GlcNAc(b1-3)Gal(b1-4)GlcNAc(b1-2)Man(a1-3)[Neu5Ac(a2-6)Gal(b1-4)GlcNAc(b1-3)Gal(b1-4)GlcNAc(b1-3)Gal(b1-4)GlcNAc(b1-2)Man(a1-6)]GalNAc
Outline: as §1

[18] = molecular target: Neu5Ac(a2-6)Gal(b1-4)GlcNAc(b1-3)Gal(b1-4)GlcNAc(b1-3)GalNAc
Outline: as §1

[19] = molecular target: Neu5Ac(a2-6)Gal(b1-4)GlcNAc(b1-3)Gal(b1-4)GlcNAc(b1-3)[Neu5Ac(a2-6)Gal(b1-4)GlcNAc(b1-3)Gal(b1-4)GlcNAc(b1-6)]GalNAc
Outline: as §1

[20] = molecular target: Neu5Ac(a2-6)Gal(b1-4)GlcNAc(b1-3)Gal(b1-4)GlcNAc(b1-6)[Gal(b1-3)]GalNAc
Outline: as §1

[21] = molecular target: Neu5Ac(a2-6)Gal(b1-4)GlcNAc(b1-3)Gal(b1-4)[Fuc(a1-3)]GlcNAc(b1-3)Gal(b1-4)[Fuc(a1-3)]GlcNAc
Outline: as §1

[22] = molecular target: Neu5Ac(a2-6)Gal(b1-4)GlcNAc(b1-3)GalNAc
Outline: as §1

[23] = molecular target: Neu5Ac(a2-6)Gal(b1-4)GlcNAc(b1-3)[Neu5Ac(a2-6)Gal(b1-4)GlcNAc(b1-6)]GalNAc
Outline: as §1

[24] = molecular target: Neu5Ac(a2-6)Gal(b1-4)GlcNAc(b1-6)GalNAc
Outline: as §1

[25] = molecular target: Neu5Ac(a2-6)Gal(b1-4)GlcNAc(b1-6)[Gal(b1-3)GlcNAc(b1-3)]Gal(b1-4)Glc
Outline: as §1

[26] = molecular target: Neu5Ac(a2-6)Gal(b1-4)GlcNAc(b1-6)[Gal(b1-3)]GalNAc
Outline: as §1

[27] = molecular target: Neu5Ac(a2-6)Gal(b1-4)GlcNAc6S
Outline: as §1

Neu5Ac(a2-6)GalNAc = molecular target: Neu5Ac(a2-6)GalNAc
Outline: as §1

[28] = molecular target: Neu5Ac(a2-6)GalNAc(b1-4)GlcNAc
Outline: as §1

[29] = molecular target: Neu5Ac(a2-6)GalNAc(b1-4)GlcNAc6S
Outline: as §1

[30] = molecular target: Neu5Ac(a2-6)GlcNAc(b1-4)GlcNAc
Outline: as §1

B1: Banana lectin (Musa acuminata) (protein)
chain: MNGAIKVGAWGGNGGSAFDMGPAYRIISVKIFSGDVVDAVDVTFTYYGKTETRHFGGSGGTPHEIVLQEGEYLVGMKGEFGNYHGVVVVGKLGFSTNKKSYGPFGNTGGTPFSLPIAAGKISGFFGRGGDFIDAIGVYLEP
glycan array binding signal (z-score) [1]: -0.192
glycan array binding signal (z-score) [2]: 0.857
glycan array binding signal (z-score) [3]: -0.145
glycan array binding signal (z-score) [4]: -0.16
glycan array binding signal (z-score) [5]: -0.168
glycan array binding signal (z-score) [6]: -0.187
glycan array binding signal (z-score) [7]: -0.159
glycan array binding signal (z-score) [8]: -0.159
glycan array binding signal (z-score) [9]: 2.13
glycan array binding signal (z-score) [10]: -0.193
glycan array binding signal (z-score) [11]: -0.192
glycan array binding signal (z-score) [12]: -0.194
glycan array binding signal (z-score) [13]: -0.194
glycan array binding signal (z-score) [14]: -0.195
glycan array binding signal (z-score) [15]: -0.155
glycan array binding signal (z-score) [16]: -0.193
glycan array binding signal (z-score) [17]: -0.179
glycan array binding signal (z-score) [18]: -0.193
glycan array binding signal (z-score) [19]: -0.191
glycan array binding signal (z-score) [20]: -0.194
glycan array binding signal (z-score) [21]: -0.146
glycan array binding signal (z-score) [22]: -0.19
glycan array binding signal (z-score) [23]: -0.189
glycan array binding signal (z-score) [24]: -0.193
glycan array binding signal (z-score) [25]: -0.194
glycan array binding signal (z-score) [26]: -0.192
glycan array binding signal (z-score) [27]: -0.197
glycan array binding signal (z-score) (Neu5Ac(a2-6)GalNAc): -0.192
glycan array binding signal (z-score) [28]: -0.194
glycan array binding signal (z-score) [29]: -0.194
glycan array binding signal (z-score) [30]: -0.195

From the supplement of paper PMC8728848
